From the RNAGym collection of RNA variant scans (doi:10.7554/elife.90254)
Read counts are not given, so values of variants with three or more changes are uncertain.

B1: LINE1-mini (parent)
chain: GGCAGAGCUCAACACAGCGUGGCAAAGUGGCUGUGGCUAGACUGCC

Variants of: B1
Assay: self-cleavage, relative activity (ratio to wild type); higher = more cleavage; in vitro, sequencing; the parent is a self-cleaving ribozyme
GGCCGAGCUCAACACAGCGUCGCAAAUUGGCUGUGGCUAGACUGCC [A4C G21C G27U] showed a self-cleavage of 0.58.
With GGCCGACCUCAACACAGGGUGGCAAAGUGGCUGUGGCUAGACUGCC [A4C G7C C18G] the self-cleavage was 0.12.
GGCCGAGCUCAACACAGCGUGGCAAAGUGGUUGUGGCUAGACUGCG [A4C C31U C46G] gave a self-cleavage of 0.02.
With GGCCGAGCUCAACACAGCGUGACCAAGUGGCUAUGGCUAGACUGCC [A4C G22A A24C G33A] the self-cleavage was 0.06.
Variant GGCCGAGCUCAACACAUCGUGGCAAAGUGUCUGUGGCUAGACUGAC [A4C G17U G30U C45A] has a self-cleavage of 0.02.
For GGCCGAGCUCAACACACCGUGGCAAAGUGGCUGUGACUAGACUGCC [A4C G17C G36A], the self-cleavage was 0.29.
GGCCGAUCUCAACACAGCGUGGCAAAGUGGCUGGGGCUAGACUGCC [A4C G7U U34G] gave a self-cleavage of 0.65.
With GGCCGAGCUCAACACAGCGUAGCAACGUGGCUGUGGCUAGACUACC [A4C G21A A26C G44A] the self-cleavage was 0.05.
GGCCUAGCUCAAUACAGCGUGGCAAAGUGGCUGUGGCUAGACUGCC [A4C G5U C13U] showed a self-cleavage of 0.06.
GGCCGAGCUCAACACAUCGUGGCAAAGUGGCUGAGGCUAGACUGCC [A4C G17U U34A] gave a self-cleavage of 0.15.
Variant GGCCGAGCUCAACACAGCGUGGAAAAGUGCCUGUUGCUUGACUGCC [A4C C23A G30C G35U A39U] has a self-cleavage of 0.09.
Variant GGCCGAGCUCAACACAGCGUGGCAAAAUGUCGGUGGCUAGACUGCC [A4C G27A G30U U32G] has a self-cleavage of 0.25.
GGCCGAGCUCAACACAGCGUGGCAAAGUGGCUGUGGUAAGACUGCC [A4C C37U U38A] showed a self-cleavage of 0.07.
For GGCCUAGCUCAACACAGCGUGGCAAAGUGGUUGUGGCUAGACUGCC [A4C G5U C31U], the self-cleavage was 0.
With GGCCGAGCUCAACACAGCGUGAAAAAGUGACUGUGGCGAGACUGCC [A4C G22A C23A G30A U38G] the self-cleavage was 0.02.
Variant GGCCGAGCUCAACACAGCGUGCCAAAGUGGCUGUGGCUAGACUGCU [A4C G22C C46U] has a self-cleavage of 0.03.
Variant GGCCGAUCUCAACACAGCGUGGCAAAGUCGCUGUGGCUAGACUGCC [A4C G7U G29C] has a self-cleavage of 0.02.
Variant GGCCGAACGCAACACAGCGUGGCAAAGUGGCUGUGGCUAGACUGCC [A4C G7A U9G] has a self-cleavage of 0.09.
GGCCGAGCUCAACACAGCGUUACAAAGUGGCUGUGGCUAGACUGCC [A4C G21U G22A] gave a self-cleavage of 0.19.
Work on GGCCUAGAUCAACAAAGCGUGGCAAAGUGGCUGUGGCAAGACUGCC [A4C G5U C8A C15A U38A] yielded a self-cleavage of 0.2.
In the case of GGCCGAGCUCAACACAGCGUGACAAAGUGGCUGUGACUAGACUGCC [A4C G22A G36A], the self-cleavage is reported as 0.24.
Work on GGCCGACCUCAACACAGCGUGGCAAAGUAGCUGUGGCUAGACUGCC [A4C G7C G29A] yielded a self-cleavage of 0.04.
Variant GGCCGAUCUCGACACAGCGUGGCAAUGUGGCUGUAGCUACACUGCC [A4C G7U A11G A26U G35A G40C] has a self-cleavage of 0.02.
GGCCUAGCUCAACACAGCGUGGCAAAGUGGCUGUGGCUAGACUUCC [A4C G5U G44U] gave a self-cleavage of 0.09.
Work on GGCCGAGCUCAACACAGCAUCGCAAAGUGGCUGUGGCUAGACUGCC [A4C G19A G21C] yielded a self-cleavage of 0.09.
In the case of GGCCGAGCUCAACACAGCGUUGCAAAGUGGCUGUGGCUAGUCUGCC [A4C G21U A41U], the self-cleavage is reported as 0.05.
GGCCUAGCUCAACACAGCGUGGCAAACUGGCUGUGUCUAGACUGCC [A4C G5U G27C G36U] gave a self-cleavage of 0.08.
GGCCGAGCUCAACACAGCGUGAGAAAGUGGCUGUGGCUAGACUGCC [A4C G22A C23G] gave a self-cleavage of 0.21.
Work on GGCCGAGCUCAACACAGCGUGGUAUCGUGGCUGUGGCUAAACUGCC [A4C C23U A25U A26C G40A] yielded a self-cleavage of 0.08.
GGCCUAGCUCAACGCAGCGUGGCAAAGGAGUUGUGGCUAGACUUCC [A4C G5U A14G U28G G29A C31U G44U] gave a self-cleavage of 0.
GGCCGAGCUCAACACACCGUGGCGAAGUGGCUCUGGCUAGACUGCC [A4C G17C A24G G33C] showed a self-cleavage of 0.1.
For GGCCGAGCUCAACACAGCGUGGCAAAGUGGCUGUGGUUAGACUGCA [A4C C37U C46A], the self-cleavage was 0.09.
GGCCUAGAUCAACACAGAGUGGCAAAGUGGCUGUGGCUAGGCUGCC [A4C G5U C8A C18A A41G] showed a self-cleavage of 0.11.
GGCCGAGCUCAACACAGCCUGGGAAAGUGGCUGUGGCUAGACUUCC [A4C G19C C23G G44U] showed a self-cleavage of 0.07.
For GGCCGAGCUCAACACAGCGUGGCAAAGUAGCUGUGGCUAUACUGCC [A4C G29A G40U], the self-cleavage was 0.02.
Variant GGCCGAGCUCAACACAGCGUGGCAAAGUAGCUGUGGCUAAACUGCC [A4C G29A G40A] has a self-cleavage of 0.65.
Work on GGCCGAGCUCAACACAGCGUGGCAAAGUAUCUGAGGCUAGACUGCC [A4C G29A G30U U34A] yielded a self-cleavage of 0.04.
For GGCCGAGCUCAACACAUCGUGGCAAAGUGGCUGUGACUAGACUGCC [A4C G17U G36A], the self-cleavage was 0.19.
GGCCGAGCUCAACACAGCGUGGCAAACUGGCUGUGGCUCGCCGGCC [A4C G27C A39C A41C U43G] showed a self-cleavage of 0.12.
GGCCAAGCUCAACACAGCGUGGCUAAGUGGCUGUGGCUAGACUGCC [A4C G5A A24U] gave a self-cleavage of 0.18.
GGCCGAGCUCAACACAGCAUCGCAAAGUGGCUGUGGCGAGACUGUC [A4C G19A G21C U38G C45U] gave a self-cleavage of 0.04.
GGCCUAGCUCAACACAGCGUGGUAAAGUGGCUGUGGGUAGACUGUC [A4C G5U C23U C37G C45U] showed a self-cleavage of 0.03.
GGCCGAGCUCAACACAUCGUGGCAAAGUUGGCGUGGCUAGACUGCC [A4C G17U G29U C31G U32C] gave a self-cleavage of 0.03.
GGCCGAGCUCAACACAGCGUGACAAAGUGGAUGUGGCUAGACUGCC [A4C G22A C31A] gave a self-cleavage of 0.05.
GGCCGAACUCUACACAGCGUGGCACAGUGGCUGUGGCUAUACUGCC [A4C G7A A11U A25C G40U] showed a self-cleavage of 0.05.
In the case of GGCCGAUCUAAAGACACCGUGGCAAAGUGGCGGUGGCUAGACAGCC [A4C G7U C10A C13G G17C U32G U43A], the self-cleavage is reported as 0.
GGCCGACCUCAACACAGCGUGGCAAAGUGGCUGCGGCGAGACUGCC [A4C G7C U34C U38G] gave a self-cleavage of 0.04.
GGCCGAGCUCAACACAGCGUGACAAAGUGCCUGUGGCUAGACUGAC [A4C G22A G30C C45A] gave a self-cleavage of 0.08.
GGCCGAGCUCAACACAGCGUGGCAAAGUGGGUAUGUCUAGACUGCC [A4C C31G G33A G36U] gave a self-cleavage of 0.06.
GGCCCAGCUCAACAAAGUGUGGGCAAGUGGCUGUGGCUAGACUGCC [A4C G5C C15A C18U C23G A24C] showed a self-cleavage of 0.01.
GGCCGAGCUCAACACAGCGUGGAAAAGUGGCUGUGGCUAGACUGUC [A4C C23A C45U] showed a self-cleavage of 0.42.
In the case of GGCCGAACUCAAGACAGCGUGGCAAAGUGGAUGUGGCUAGACUGCC [A4C G7A C13G C31A], the self-cleavage is reported as 0.11.
For GGCCCUGCUCAAAACAGCGUGGCAAAGUGGCUGUGGCUAGACUGCC [A4C G5C A6U C13A], the self-cleavage was 0.2.
GGCCGAGCUCAACACAGCGUAGCAAAGUGGCCGUGGCUAGACAGCC [A4C G21A U32C U43A] gave a self-cleavage of 0.07.
GGCCGAGCUCAACACAGCGUGCCAAGAUGGCUGUGGAUAGACUGCC [A4C G22C A26G G27A C37A] showed a self-cleavage of 0.04.
Work on GGCCGAUCUCAACACAGCGUGGCGAAGUGGCUGUGGUUAGACUGCC [A4C G7U A24G C37U] yielded a self-cleavage of 0.03.
